For 18 molecules, T/C results are on record in PubChem BioAssay AID330 (DTP/NCI, 2004).

For this assay, the system named is P388 leukemia ip, CD2F1 mice, survival T/C. Briefly: NCI In Vivo Anticancer Drug Screen. Data for tumor model P388 Leukemia (intraperitoneal) in CD2F1 (CDF1) mice. Conditions: endpoint: median survival time, higher = longer survival.
Setting [1] is: dose: 100.0 mg/kg/injection, schedule: Q01DX009 (ip), vehicle: saline.
Setting [2] is: dose: 100.0 mg/kg/injection, schedule: Q01DX009 (ip), vehicle: saline with Tween-80.

Each structure is given as a SMILES string. Toxic doses and inconclusive results are not listed. A number of entries come with more than one value. They are shown here; other results are not. An entry can have further records. The values listed for one entry are repeated measurements (runs, samples, wells, individuals or studies). Marks in square brackets tell the records apart. The letters are not those of the source and start again with each entry.

In the case of `Cc1cc2cc3c(=O)[nH]c(=O)nc-3n(CC(O)C(O)C(O)CO)c2cc1C` (stereo not given), the T/C (dose: 60.0 mg/kg/injection, schedule: Q01DX005 (ip), vehicle: saline with Tween-80) is on record as 88 % of control, 120 % of control, 158 % of control. Turning to `CCOC(=O)Nc1cc2c(c(N)n1)N=C(c1ccccc1)CN2`, the T/C (dose: 6.0 mg/kg/injection, schedule: Q01DX005 (ip), vehicle: saline with Tween-80) was 123 % of control and 155 % of control. `COC(C(=O)C(O)C(C)O)C1Cc2cc3cc(OC4CC(OC5CC(O)C(O)C(C)O5)C(O)C(C)O4)c(C)c(O)c3c(O)c2C(=O)C1OC1CC(OC2CC(O)C(OC3CC(C)(O)C(O)C(C)O3)C(C)O2)C(O)C(C)O1` (stereo not given): the T/C (dose: 0.5 mg/kg/injection, schedule: Q01DX009 (ip), vehicle: saline) is 112 % of control and 173 % of control. Take `COc1cc2cc(c1Cl)N1CC(=O)C(C)(O)C(=O)N(C)C(C)C(=O)OC(CC1=O)C1(C)OC1C(C)C1CC(O)(NC(=O)O1)C(OC)/C=C\C=C(\C)C2OC` (stereo not given): the T/C (dose: 8.0 micrograms/kg/injection, schedule: Q01DX009 (ip), vehicle: distilled water + alcohol) is 108 % of control and 192 % of control. On to `ClCC[N+]12CC[N+](CCCl)(CC1)C2`, for which the T/C (dose: 25.0 mg/kg/injection, schedule: Q01DX009 (ip), vehicle: saline) is recorded as 107 % of control, 157 % of control, 159 % of control. Regarding `O=c1n(CC2CO2)c(=O)n(CC2CO2)c(=O)n1CC1CO1` (stereo not given), under “dose: 40.0 mg/kg/injection, schedule: Q01DX009 (ip), vehicle: saline”, the T/C is 120 % of control, 350 % of control, 588 % of control. Take `CN=C(N)NN=C(c1ccc(Br)cc1)c1ccc(Br)cc1`: the T/C (dose: 100.0 mg/kg/injection, schedule: Q04DX002 (ip), vehicle: saline with Tween-80) was 121 % of control and 166 % of control. `CCc1c2cc(OC)c(OC)cc2cc2c3cc(OC)c(OC)cc3cc[n+]12` (tested in a mixture with another compound): the T/C under setting [1] was 99 % of control and 193 % of control.

For the molecule `COc1cc(N)ccc1Nc1c2ccccc2nc2ccccc12`, the T/C (dose: 25.0 mg/kg/injection, schedule: Q04DX002 (ip), vehicle: distilled water + Tween-80) is 119 % of control and 165 % of control. `[C-]#[N+]C1CC2CCC1C2.[C-]#[N+]C1CC2CCC1C2.[C-]#[N+]C1CC2CCC1C2.[C-]#[N+]C1CC2CCC1C2.[C-]#[N+]C1CC2CCC1C2.[C-]#[N+]C1CC2CCC1C2.[Mn]` (stereo not given): for the setting “dose: 0.75 mg/kg/injection, schedule: Q01DX009 (ip), vehicle: saline with Tween-80”, the T/C is 97 % of control and 163 % of control. `[Cl][Pt+2][Cl].[NH-]C1CCCC2CCC[N-]C12` (stereo not given): the T/C under setting [2] is 90 % of control and 176 % of control.

Regarding `COC(COC(=O)N1CCN(C=O)CC1)C1=C(N2CC2)C(=O)C(C)=C(N2CC2)C1=O` (stereo not given), the T/C (dose: 6.25 mg/kg/injection, schedule: Q01DX005 (ip), vehicle: saline) was 88 % of control, 275 % of control, 294 % of control. `Cc1ccc(NSC(Cl)(Cl)Cl)cc1`: under setting [1], the T/C was 110 % of control and 151 % of control. For `Nc1nc(SCc2cccc(Br)c2)c2ncn(C3OC(CO)C(O)C3O)c2n1` (stereo not given), the T/C under setting [2] was 108 % of control and 150 % of control. As for `CC(C)CC(NC(=O)C(N)Cc1ccc(N(CCCl)CCCl)cc1)C(=O)O` (stereo not given), for the setting “dose: 16.0 mg/kg/injection, schedule: Q04DX003 (ip), vehicle: saline with Tween-80”, the T/C is 90 % of control [sample A] and 157 % of control [sample B]. Turning to `COc1cc2cc3c4cc(OC)c(OC)cc4cc[n+]3c(C)c2cc1OC`, the T/C (dose: 800.0 mg/kg/injection, schedule: Q04DX003 (ip), vehicle: saline sonified) was 108 % of control, 170 % of control [sample A] and 108 % of control [sample B]. As to `CC(=O)N(C)N=Nc1ccc(C)cc1`, the T/C (dose: 200.0 mg/kg/injection, schedule: Q01DX009 (ip), vehicle: saline) is 99 % of control and 154 % of control; the T/C (dose: 400.0 mg/kg/injection, schedule: Q01DX009 (ip), vehicle: saline) was 100 % of control and 185 % of control. On to `CCCCCCCC(=O)OCC(=O)[C@]1(O)Cc2c(O)c3c(c(O)c2[C@@H](OC2CC(N)C(O)C(C)O2)C1)C(=O)c1c(OC)cccc1C3=O` (stereo not given in full), for which the T/C reads like this: (dose: 0.25 mg/kg/injection, schedule: Q01DX009 (ip), vehicle: saline with Tween-80) 118 % of control and 155 % of control; (dose: 2.0 mg/kg/injection, schedule: Q01DX009 (ip), vehicle: saline with Tween-80) 114 % of control and 152 % of control.
